Test results: the supplement of paper PMC3334620
Over roughly 33,000 sequences, “E-score (-0.5 to 0.5)” has its median near -0.011; the highest 2% begin near 0.28. The list shows a part of the results.

target: T1, Gcr1 (UniProt P07261); assay: PBM E-score (8-mer binding enrichment) (E-score (-0.5 to 0.5)); higher = stronger / more preferred TF binding; most listed sequences are background and not binding sites; settings: protein concentration: 100 nM; construct: GST-full length
T1 sequence: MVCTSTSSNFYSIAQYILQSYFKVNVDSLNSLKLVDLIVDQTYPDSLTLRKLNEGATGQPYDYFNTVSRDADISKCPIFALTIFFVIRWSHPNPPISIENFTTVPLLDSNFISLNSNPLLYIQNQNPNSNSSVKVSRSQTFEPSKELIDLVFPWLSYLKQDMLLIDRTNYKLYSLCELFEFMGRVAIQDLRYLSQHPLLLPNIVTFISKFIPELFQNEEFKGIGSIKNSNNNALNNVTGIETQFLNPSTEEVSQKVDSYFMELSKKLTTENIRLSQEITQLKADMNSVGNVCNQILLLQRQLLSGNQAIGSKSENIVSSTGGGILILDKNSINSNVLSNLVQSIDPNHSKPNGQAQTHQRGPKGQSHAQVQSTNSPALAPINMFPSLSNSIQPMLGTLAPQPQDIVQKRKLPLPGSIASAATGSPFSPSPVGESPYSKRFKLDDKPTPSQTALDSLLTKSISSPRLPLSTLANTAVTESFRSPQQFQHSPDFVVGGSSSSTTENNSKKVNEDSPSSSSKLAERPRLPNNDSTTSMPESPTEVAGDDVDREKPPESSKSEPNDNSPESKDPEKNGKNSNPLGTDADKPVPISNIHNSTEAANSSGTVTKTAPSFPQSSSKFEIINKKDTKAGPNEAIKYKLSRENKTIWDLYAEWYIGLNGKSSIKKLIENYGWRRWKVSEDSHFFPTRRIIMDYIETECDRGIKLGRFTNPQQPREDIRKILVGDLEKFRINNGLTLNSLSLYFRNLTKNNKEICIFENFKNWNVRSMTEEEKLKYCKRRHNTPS
Method in brief: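 Masliner-normalised scans of fluorescent anti-GST signal were the basis for scoring. That signal came from GST-tagged yeast transcription factors applied at about 100-200 nM to double-stranded universal all-10-mer Agilent arrays on fresh or once-stripped slides. Each ungapped eight-base word, pooled with its reverse complement, received an E-score from the Universal PBM Analysis Suite.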

Sequence | PBM E-score
ACAAAAAT | 0.125
CTCAAGAA | 0.224
CCACTGCC | -0.00453
CTTCTAGC | -0.137
CATGGAAC | 0.0196
GGATGAAA | -0.0204
AATACCTC | 3e-05
CTTCTCTA | 0.0371
AGCAGTTA | -0.076
AGAGTACC | -0.108
ACTAAGGG | 0.035
AAGCCGCC | 0.125
ACGCCGCT | 0.262
CACCGTGA | 0.0121
AAACCTAC | -0.0804
ACCCGCAG | 0.18
AACATATT | 0.0829
GGTCATTA | -0.094
ATGATCAC | -0.00225
TCTTCTAA | 0.329
ACGCAAGC | -0.00602
AGAACCAT | 0.154
GATCTGCA | 0.0851
TAATTTAA | 0.113

Sequence | PBM E-score
CATAGTCC | 0.00228
ATTAACTG | 0.143
GATCGGAA | -0.128
GATAATGC | -0.114
GAATAAGC | -0.114
ACAAAGAA | 0.243
CTGAGGCC | -0.167
TGCTAGAA | -0.0709
GTCTCCTA | 0.155
AACAGCGT | 0.0182
AATCAGCT | 0.0477
CAAACCCC | -0.227
CGTGACGC | -0.123
TCACTCGA | -0.127
CGAGGCAA | -0.0515
CGAATAAA | -0.0149
CACGGGCG | -0.156
CTAGGGTC | 0.00957
CAGACACA | -0.0598
AGTTGCTA | 0.226
AGCCTTGA | -0.273
ATCGGTAA | 0.168
AGGCACAG | -0.175
CAATGTGA | -0.137

Sequence | PBM E-score
GAGCTCAC | -0.135
ATCTACAG | 0.0523
AGACGGGC | -0.18
AAGTCTCT | -0.294
ACAGACAA | 0.0204
CCTACTTA | 0.0587
GCTGGCCA | -0.182
AGCTCGGA | -0.196
CAGGGACA | -0.132
GTATTTCA | -0.00906
CGCACGCA | -0.0673
TATGCGGA | 0.238
ACGGATTC | 0.237
TAGGAAGA | 0.0862
CGTTGTTA | 0.0232
GAGGCGCC | 0.302
CGAGTACG | -0.0512
CAACTACG | -0.117
AGTGTTGG | 0.103
CACCCCAC | 0.126
ACCATCCT | 0.0586
TCTGTAAA | 0.103
ACCAAGGT | -0.1
CGCTGGGA | 0.114

Sequence | PBM E-score
AAATATCG | 0.109
ATATACGG | -0.0387
CCCCAAAA | 0.188
CTTCGTAA | 0.174
CCTAATAA | 0.218
CATCTAGG | -0.0251
ATGATAAA | 0.0745
GGATACGA | -0.138
ATAAGCCC | -0.17
ACTCGATG | 0.0464
CGCAGGGA | -0.185
CAGGCCTG | -0.217
CCTTCTGA | 0.107
ATCTAGAA | 0.234
ACTCTTTC | -0.12
GCTCGCAA | -0.174
AAAACCCA | 0.0376
ACTGGGTG | 0.213
CCTCAGGA | 0.0261
CGCAAGCG | -0.182
GGTCGGAC | -0.206
AGCCGTTC | -0.0625
